“And” between values parts separate entries of the source, which are not always exact repeats. Equal entries are not always repeated. Screen size: about 72,000 compounds; about 710 (0.99%) were called active. The shares of active, inactive and inconclusive entries below differ from those in the screen. The call rests on the fitted dose curve; in most records, active means well fitted inhibition curve with a large enough effect; inconclusive means small, poorly fitted or top-dose-only effect; inactive means no such curve, though single readings can be large or run the other way. Potencies beside an inconclusive call are fits to weak or partial responses and may not hold up.
Test: qHTS Assay for Inhibitors of the ERK Signaling Pathway using a Homogeneous Screening Assay; further: nearly all actives have a fitted effect of over 55% in size
Conditions: HEK293-V1b, vasopressin-stimulated pERK AlphaScreen; activity, negative = inhibition: at 57.5 µM (top of the series) unless noted
Procedure, shortened: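 Overnight-seeded V1b-HEK293 cells in 1% FBS got compound, then vasopressin (25 nM final, 5 min, 37C), then lysis buffer. AlphaScreen detection of phospho-ERK; activity normalized to basal and full-stimulation controls.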
With `CC1Cc2cc(/C(O)=C3/C(=O)C(=O)N(Cc4ccco4)C3c3cccs3)ccc2O1` (stereo unspecified) the Potency was inconclusive: 0.158 µM [inhibitor, full curve, poor fit].
With `Cc1cc(/C=C(/C#N)c2cccc(F)c2)c(C)n1-c1cccnc1` the Potency was inconclusive: 20 µM [inhibitor, partial curve].
With `COc1ccc(-c2cc(C(=O)O)c(C)o2)cc1OC` the Potency was inconclusive: 0.398 µM [inhibitor, full curve, poor fit].
For `CCC(Oc1ccccc1)C(=O)Nc1ccc(S(=O)(=O)NCC2CCCO2)cc1` (stereo unspecified), the activity, negative = inhibition was inconclusive: -30.7% [inhibitor].
With `N#CCc1c(C#N)c(N)nc(N2CCN(S(=O)(=O)c3ccccc3)CC2)c1C#N` the Potency was inconclusive: 39.8 µM [inhibitor, single point].
With `N/C(CSc1nc(-c2ccccc2)c(-c2ccccc2)o1)=N\O` the Potency was active: 31.6 µM.
For `CC1=C(CCC(=O)O)c2cc3nc(cc4[nH]c(cc5[nH]c(cc1n2)c(C)c5C(C)O)c(C)c4C(C)O)C(C)=C3CCC(=O)O` (stereo unspecified), the Potency was “inactive”.
With `COCc1nnc(NC(=O)CSc2ccc(C)cc2)s1` the Potency was inconclusive: 6.31 µM [inhibitor, partial curve].
In the case of `Cc1sc2ncnc(SC(C)C#N)c2c1C` (stereo unspecified), the Potency is reported as “inactive”.
With `O=C(Nc1ccc(SC(F)F)cc1)C1=COCCO1` the Potency was “inactive”.
For `Nc1nnc(SCC(=O)N2CCN(c3ccccc3)CC2)s1`, the Potency was “inactive”.
For `COc1cc2c(C#N)c(N3CCCCC3)nc(N)c2c(N)n1`, the Potency was inconclusive: 2.51 µM [inhibitor, partial curve].
For `O=C(CSc1nnc(-c2ccccc2)o1)c1nnc(-c2ccccc2)o1`, the Potency was “inactive”.
In the case of `COc1cc(NC(=O)NCCN2CCN(c3ccc(Cl)cc3)CC2)ccc1C`, the Potency is reported as inconclusive: 10 µM [inhibitor, partial curve].
With `CC(Oc1ccc(Cl)cc1Cl)C(=O)Nc1ccncc1` (stereo unspecified) the Potency was inconclusive: 25.1 µM [inhibitor, partial curve, poor fit].
In the case of `Cc1cc(C)c2c(N)c(S(=O)(=O)c3ccccc3)sc2n1`, the Potency is reported as inconclusive: 15.8 µM [inhibitor, partial curve, poor fit].
With `c1ccc(-c2cc(CSc3nc4ccccc4[nH]3)on2)cc1` the Potency was inconclusive: 25.1 µM [inhibitor, single point].
For `COC1OC(CO)C(OC2OC(C(=O)O)C(OC3OC(COS(=O)(=O)O)C(OC4OC(C(=O)O)C(OC5OC(CO)C(OC6OC(C(=O)O)C(OC7OC(COS(=O)(=O)O)C(OC8OC(C(=O)O)=C[C@H](O)C8OS(=O)(=O)O)C(O)C7NC(C)=O)[C@@H](O)C6O)C(O)C5NC(C)=O)[C@@H](O)C4O)C(O)C3NC(C)=O)[C@@H](O)C2O)C(O)C1NC(C)=O` (stereo partly specified), the Potency was “inactive”.
In the case of `OC(COc1ccc2c(c1)CCC2)Cn1cnc2ccccc21` (stereo unspecified), the Potency is reported as inconclusive: 20 µM [inhibitor, partial curve].
In the case of `COC(=O)c1cccc(C#CC(NP(=O)(c2ccccc2)c2ccccc2)c2ccccc2)c1` (stereo unspecified), the Potency is reported as inconclusive: 0.0631 µM [inhibitor, full curve, poor fit].
In the case of `O=C(c1ccco1)N1CCN(c2nc(C(F)(F)F)nc3c2nnn3Cc2ccccc2)CC1`, the Potency is reported as inconclusive: 39.8 µM [inhibitor, single point].
For `COc1cc(C(=O)OCCCN2CCCN(CCCOC(=O)c3cc(OC)c(OC)c(OC)c3)CC2)cc(OC)c1OC`, the Potency was inconclusive: 15.8 µM [inhibitor, partial curve] and inconclusive: 31.6 µM [inhibitor, single point].
In the case of `Oc1c(Cl)cc(Cl)c2c1NCCC2`, the Potency is reported as “inactive”.
In the case of `COCCn1c(C)cc(C(=O)CSc2nncn2-c2ccccc2)c1C`, the Potency is reported as “inactive”.
For `CCOC(=O)N1CCN(C(=O)CSc2nnc(COc3ccc(Cl)cc3)o2)CC1`, the Potency was inconclusive: 15.8 µM [inhibitor, partial curve].
With `CCN1CCCC1CNC(=O)c1cc2c(=O)n(C)c3ccccc3c2n1C` (stereo unspecified) the Potency was inconclusive: 12.6 µM [inhibitor, partial curve, poor fit].
With `NC1=N[C@H](c2ccc(Cl)cc2)N(c2ccc(S(=O)(=O)Nc3ncccn3)cc2)C(N)=N1` the Potency was inconclusive: 7.94 µM [inhibitor, single point].
With `CC1=C(C(=O)Nc2ccccc2)C(c2ccco2)C(C#N)=C(SCC(=O)OC(C)C)N1` (stereo unspecified) the Potency was “inactive”.
For `Cc1cc(C)c2nc(C(F)(F)F)nc(N3CCN(C(=O)c4ccco4)CC3)c2c1`, the Potency was inconclusive: 39.8 µM [inhibitor, single point].
For `COc1ccc2nc3c(cc2c1)Cc1ccccc1-3`, the Potency was active: 31.6 µM.
In the case of `O=C(NCCCN1CCOCC1)c1ccc(CS(=O)(=O)c2ccc(Br)cc2)o1`, the Potency is reported as inconclusive: 25.1 µM [inhibitor, partial curve].
With `CCOc1ccc2nc(NC(=O)Nc3cccs3)sc2c1` the Potency was active: 31.6 µM.
With `CCOc1ccc(-c2nn3c(-c4ccc(F)cc4)nnc3s2)cc1` the Potency was “inactive”.
In the case of `CN1c2cc3c(cc2N=C(c2ccc(C(=O)O)cc2)c2ccccc21)C(C)(C)CCC3(C)C`, the Potency is reported as inconclusive: 39.8 µM [inhibitor, single point].
For `O=C(Cc1ccsc1-c1ccccc1)NO`, the Potency was inconclusive: 20 µM [inhibitor, partial curve].
With `Cc1noc(C)c1-c1nc(NC2CC2)c2ccccc2n1` the Potency was inconclusive: 2 µM [inhibitor, partial curve].
For `CCNc1ncc2nc(CCc3ccccc3)c(=O)n(CCC#N)c2n1`, the Potency was inconclusive: 2 µM [inhibitor, full curve].
In the case of `NC1=C(O)C(=O)[C@H](c2c[nH]c3ccc(OCc4ccccc4)cc23)O1`, the activity, negative = inhibition is reported as inactive: -7.62% [at 11.5 µM].
For `O=C(c1ccncc1)N1CCC[C@@]2(CCN(Cc3ccccc3)C2)C1`, the Potency was “inactive”.
With `C=C[C@]1(C)C[C@H](OC(=O)CO)[C@]2(C)C3C(=O)CC[C@]3(CC[C@H]2C)[C@H](C)[C@H]1O` (stereo partly specified) the activity, negative = inhibition was inactive: 22.7% [at 11.5 µM].
With `CC(=O)Oc1ccc2c(c1OC(C)=O)OCC1(O)Cc3c(cc(OC(C)=O)c(OC(C)=O)c3OC(C)=O)C21` (stereo unspecified) the Potency was inconclusive: 25.1 µM [inhibitor, single point].
With `COc1ccc(OC)c(C(C(=O)NCc2ccco2)N(C(=O)Cn2nnc3ccccc32)C(C)C)c1` (stereo unspecified) the Potency was “inactive”.
For `CC(C)NCC(O)Cn1c2c(c3ccccc31)CCc1c-2cnn1-c1ccccc1` (stereo unspecified), the Potency was inconclusive: 39.8 µM [inhibitor, single point].
With `CCN1C(=O)/C(=C2/C=CC=CN2C)SC1=S` the Potency was inconclusive: 10 µM [inhibitor, partial curve].
For `Cc1cc(NO)nc(-c2ccc(Br)cc2)n1`, the Potency was “inactive”.
In the case of `CC1(C)CC(=O)C2=C(C1)NC(=O)CC2c1cccc(F)c1` (stereo unspecified), the Potency is reported as “inactive”.
With `CC(=O)NCCNc1ncnc2ccc(-c3ccccc3C#N)cc12` the Potency was “inactive”.
With `COc1ccccc1-c1ccc2ncnc(N3CCOCC3)c2c1` the Potency was active: 10 µM.
For `O=C(O)CNC(=O)c1ccc2c(c1)OCCO2`, the Potency was inconclusive: 5.01 µM [inhibitor, full curve, poor fit].
In the case of `O=C(c1ccc2c3c(cccc13)CC2)N1CCN(c2ncccn2)CC1`, the Potency is reported as inconclusive: 39.8 µM [inhibitor, single point].
With `CC(C)(C)c1ccc(OCc2nc(-c3ccccn3)no2)c(Br)c1` the Potency was “inactive”.
For `COC(=O)c1c(NC(=O)c2ccc(C)o2)sc2c1CCCCC2`, the Potency was “inactive”.
For `COc1ccc(Cc2nnc(SCc3c(C)noc3C)n2C2CCCCC2)cc1OC`, the Potency was “inactive”.
For `O=S(=O)(O)c1ccccc1`, the Potency was “inactive”.
For `COc1cc(C2C(C#N)=C(N)Oc3n[nH]c(C)c32)cc2c1OCO2` (stereo unspecified), the Potency was inconclusive: 39.8 µM [inhibitor, single point].
With `CCOc1nc(-c2ccccc2)ccc1-c1noc(-c2ccc(OC)c(OC)c2)n1` the Potency was “inactive”.
With `COc1ccc(C(=S)N2CCN(C)CC2)cc1Br` the Potency was inconclusive: 6.31 µM [inhibitor, partial curve].
For `COc1ccc(CNc2oc(C)nc2C#N)cc1`, the Potency was “inactive”.
With `CC1=C(NCCc2ccccc2)CCC1=O` the Potency was inconclusive: 25.1 µM [inhibitor, single point].
In the case of `CC1Cc2ccccc2N1S(=O)(=O)c1cccc(C(=O)OCC(=O)NC2CCS(=O)(=O)C2)c1` (stereo unspecified), the Potency is reported as inconclusive: 39.8 µM [inhibitor, single point].
In the case of `O=C(CN1C(=O)NC2(CCCCCCC2)C1=O)NC(=O)NCc1ccco1`, the Potency is reported as inconclusive: 10 µM [inhibitor, partial curve, poor fit].
In the case of `CNc1nc(N2CCc3ccccc32)ncc1F`, the Potency is reported as inconclusive: 7.94 µM [inhibitor, full curve].
With `Nc1c(C(=O)NC2CCCC2)c2nc3ccccc3nc2n1/N=C/c1cccnc1` the Potency was “inactive”.
With `CCN=c1scc(-c2ccc3c(c2)NC(=O)CO3)n1N=C1CCCC1` the Potency was inconclusive: 10 µM [inhibitor, partial curve].
For `CCOc1ccc2nc(NC(=O)C3CCN(c4cnccn4)CC3)sc2c1`, the Potency was inconclusive: 39.8 µM [inhibitor, single point].
For `O=C(O)CCC(=O)Nc1nnc(C(F)(F)F)s1`, the Potency was “inactive”.
With `COc1ccc(S(=O)(=O)N2CCCN(S(=O)(=O)c3ccc(OC)cc3C)CC2)c(C)c1` the Potency was “inactive”.
For `CCOC(=O)c1c(NC(=O)OC)sc(C(=O)N(C)C)c1C`, the Potency was inconclusive: 3.16 µM [inhibitor, full curve, poor fit].
With `COc1cc2c(cc1OC)CN(C(=O)C(C)(C)C)CC2` the Potency was “inactive”.
For `CN1/C(=C/C=N/n2cnnc2)C(C)(C)c2ccccc21`, the Potency was inconclusive: 39.8 µM [inhibitor, single point].
For `Cc1ccc2c(CC(=O)Nc3ccc(N4CCN(C)CC4)cc3C)coc2c1`, the Potency was inconclusive: 12.6 µM [inhibitor, partial curve].
On the % scale 0 is the no-effect control and ±100 the full control effect; potency means the concentration at half of the fitted maximal effect; tags describe the fitted curve by direction and shape.
